Measurements: PubChem BioAssay AID1851 (National Center for Advancing Translational Sciences (NCATS), 2009)
Shown are results outside the selection of hits, which stands elsewhere. Inconclusive results are not listed. Active and inactive are the calls of the source. The call rests on the fitted dose curve; in most records, active means well fitted curve in the direction sought with a large enough effect; inconclusive means small, poorly fitted or top-dose-only effect, or effect the other way; inactive means no such curve, though single readings can be large or run the other way.

Biological target: Cytochrome P450 3A4 (Homo sapiens) (UniProt P08684)
Chain of UniProt P08684 (P08684 whole entry, looked up): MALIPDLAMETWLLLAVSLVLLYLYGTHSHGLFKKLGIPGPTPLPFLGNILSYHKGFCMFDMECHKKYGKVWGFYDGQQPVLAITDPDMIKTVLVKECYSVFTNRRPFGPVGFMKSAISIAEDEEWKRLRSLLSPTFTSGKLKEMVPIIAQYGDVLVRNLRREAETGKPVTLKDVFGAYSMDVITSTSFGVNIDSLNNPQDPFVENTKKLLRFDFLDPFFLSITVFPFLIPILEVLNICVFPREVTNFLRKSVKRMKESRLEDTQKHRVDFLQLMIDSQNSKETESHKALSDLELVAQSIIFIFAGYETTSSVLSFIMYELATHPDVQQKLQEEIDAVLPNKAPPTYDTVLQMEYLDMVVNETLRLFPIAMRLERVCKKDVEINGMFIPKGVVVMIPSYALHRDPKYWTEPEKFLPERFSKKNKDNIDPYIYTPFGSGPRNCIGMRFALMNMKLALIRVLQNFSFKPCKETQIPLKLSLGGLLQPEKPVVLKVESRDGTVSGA
Assay: Cytochrome panel assay with activity outcomes
Settings: recombinant CYP, pro-luciferin dealkylation, luminescence, p450-cyp3a4

Measured: activity, negative = inhibition
On the % scale 0 is the no-effect control and ±100 the full control effect.

CN1[C@@H]2CC[C@H]1CC(OC(=O)[C@@H](O)c1ccccc1)C2 (stereo partly drawn)
inactive: at 11.4 µM (top of the series) -8.01% | at 25.6 µM (top of the series) -7.14% | at 57.1 µM (top of the series) 1.4%
